Reference: patent US20240400703A1 (Genmab, published 2024)

Assays:
[1] = target: T1, mouse OX40 expressed on ExpiCHO-S cells (mouse, UniProt P47741 20-272); assay: flow cytometry, transfected ExpiCHO-S cells, gMFI (PE)
T1 construct: full-length entry; also called OX40mm; wild-type mouse OX40
T1 sequence: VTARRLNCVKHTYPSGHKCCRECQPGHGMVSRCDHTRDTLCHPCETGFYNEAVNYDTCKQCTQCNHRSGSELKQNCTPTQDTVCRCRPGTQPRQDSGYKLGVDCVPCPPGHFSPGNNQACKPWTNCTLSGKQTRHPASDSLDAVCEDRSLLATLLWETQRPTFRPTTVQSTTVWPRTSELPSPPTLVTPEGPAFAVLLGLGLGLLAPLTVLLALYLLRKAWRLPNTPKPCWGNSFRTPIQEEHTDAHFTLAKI

[2] = target: T2, human OX40 with mouse CRD4 (human with mouse CRD4, UniProt P43489 29-277); assay: as above
T2 construct: on ExpiCHO-S cells; also called OX40-CRD4mm; Shuffle 4
T2 chain: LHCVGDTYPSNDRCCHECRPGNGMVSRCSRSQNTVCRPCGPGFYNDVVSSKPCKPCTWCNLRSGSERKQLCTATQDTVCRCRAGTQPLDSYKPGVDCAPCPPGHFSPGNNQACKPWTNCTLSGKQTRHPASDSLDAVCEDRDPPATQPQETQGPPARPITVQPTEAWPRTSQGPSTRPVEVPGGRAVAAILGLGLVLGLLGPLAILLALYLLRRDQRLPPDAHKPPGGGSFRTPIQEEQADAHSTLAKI
Experimental: The four shuffle constructs, as well as wild-type human and mouse OX40 were transiently expressed on ExpiCHO-S cells using the ExpiFectamine™ CHO Transfection Kit (ThermoFisher, cat. no. A29131), according to the manufacturer's protocol. […] Next, cells were washed twice in FACS buffer 1, were resuspended in a 30 μL solution of viability marker ToPro-3 (Invitrogen, cat. no. T3605, diluted 1:10,000) in FACS buffer 1 supplemented with 2 mM EDTA, and were analyzed on an iQue Screener Plus (Intellicyt Corporation, USA). Data were analyzed using FlowJo software and visualized using GraphPad Prism.

- binding result [1]: no binding (tested: 50 µg/mL)
- EC50 (read off the curve) [2]: ~0.06 µg/mL
B1: IgG1-CD134-11D4 (antibody)
heavy: EVQLVESGGGLVQPGGSLRLSCAASGFTFSSYSMNWVRQAPGKGLEWVSYISSSSSTIDYADSVKGRFTISRDNAKNSLYLQMNSLRDEDTAVYYCARESGWYLFDYWGQGTLVTVSSASTKGPSVFPLAPSSKSTSGGTAALGCLVKDYFPEPVTVSWNSGALTSGVHTFPAVLQSSGLYSLSSVVTVPSSSLGTQTYICNVNHKPSNTKVDKRV[letters of human IgG1 Fc not shown]
light: [letters of about 200 residues not shown]
notes: human IgG1, wild-type Fc
